In all, about 81,000 sequences were measured (“one-hybrid fitness for binding NBS DNA”: median about -0.1, highest 2% from about 0.36 on). Some of the results follow.
B1: Caulobacter ParB omega fusion; a variant is named by its letters at X, in order, B8GW30 (parent)
chain: MESVVVGEPGMSEGRRGLGRGLSALLGEVDAAPAQAPGEQLGGSREAPIEILQRNPDQPRRTFREEDLEDLSNSIREKGVLQPILVRPSPDTAGEYQIVAGERAWRAAQRAGLKTVPIMVRELDDLAVLEIGIIENVQRADLNVLEEALSYKVLMEKFERTQENIAQTIGKSXSHVANXMRLLXLPDEVQSYLVSGELTAXHARAIAAAADPVALAKQIIEGGLSVRETEALARKAPNLSAGKSKGGRPPRVKDTDTQALESDLSSVLGLDVSIDHRGSTGTLTITYATLEQLDDLCNRLTRGI

Variants of: B1
Test: one-hybrid fitness for binding NBS DNA (the Noc-binding site; scaled: cognate 1, non-cognate 0); higher = stronger binding
Details: with NBS DNA site
Outline: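 On M9-minus-histidine containing 0.1 mM IPTG and 5 mM 3-AT, E. coli USO cells with a HIS3 reporter, site 19 bp from the promoter, grew 48 hours at 37°C to select Caulobacter ParB libraries randomised at four specificity codons. Plasmids from before and after were Illumina-sequenced, with three replicate libraries pooled and variants under 10 reads left out. Fitness is the log change in variant-to-wild-type read ratio, rescaled against cognate and non-cognate.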

Variant | one-hybrid fitness for binding NBS DNA
RCDS | ≤ 0.2
LGLW | ≤ 0.2
HFER | ≤ 0.2
TYDM | ≤ 0.2
CYVG | ≤ 0.2
LRAW | ≤ 0.2
GRMS | ≤ 0.2
SKPK | ≤ 0.2
KRSS | 0.421
ASGV | ≤ 0.2
SSRV | ≤ 0.2
NAKG | ≤ 0.2
LTNW | ≤ 0.2
LTDR | ≤ 0.2
LSID | ≤ 0.2
DMYT | ≤ 0.2
LEAP | ≤ 0.2
WDFS | ≤ 0.2
RQPI | ≤ 0.2
PICT | ≤ 0.2
QYEL | ≤ 0.2
PEIA | ≤ 0.2
GPPW | ≤ 0.2
NYMV | ≤ 0.2
QDTV | ≤ 0.2
NQSM | ≤ 0.2

Variant | one-hybrid fitness for binding NBS DNA
SSLL | ≤ 0.2
HTWA | ≤ 0.2
KLTS | ≤ 0.2
GRQR | ≤ 0.2
RRTV | 0.286
CPRM | ≤ 0.2
ADIL | ≤ 0.2
MSNT | ≤ 0.2
CKHA | ≤ 0.2
PVCL | ≤ 0.2
FGTG | ≤ 0.2
TQHT | ≤ 0.2
ITFS | ≤ 0.2
YNSN | ≤ 0.2
RAWY | ≤ 0.2
NYVG | ≤ 0.2
QAAN | ≤ 0.2
ASQL | ≤ 0.2
TGPS | ≤ 0.2
YWRS | ≤ 0.2
FLSI | ≤ 0.2
RTVC | ≤ 0.2
INEC | ≤ 0.2
RTAG | ≤ 0.2
LGKM | ≤ 0.2
WGLI | ≤ 0.2

Variant | one-hybrid fitness for binding NBS DNA
RWAD | ≤ 0.2
THLC | ≤ 0.2
RAAW | ≤ 0.2
DRIG | ≤ 0.2
FTES | ≤ 0.2
KPRC | ≤ 0.2
TRMI | ≤ 0.2
PDPM | ≤ 0.2
YGEM | ≤ 0.2
AVGC | ≤ 0.2
RSGC | ≤ 0.2
RADR | ≤ 0.2
GKHA | ≤ 0.2
SNSF | ≤ 0.2
QHTG | ≤ 0.2
MPAG | ≤ 0.2
DFHP | ≤ 0.2
CVVR | ≤ 0.2
DRKM | ≤ 0.2
TLEG | ≤ 0.2
DPTG | ≤ 0.2
AMGY | ≤ 0.2
ESAL | ≤ 0.2
LHAH | ≤ 0.2

— a collection of fitness landscapes (doi:10.1016/j.celrep.2020.107928)
